{"source": "PubChem BioAssay (NCATS)", "key": {"[1]": {"molecular_target": "Cytochrome P450 2D6 (Homo sapiens) (UniProt P10635)", "sequence (P10635 whole entry, looked up)": "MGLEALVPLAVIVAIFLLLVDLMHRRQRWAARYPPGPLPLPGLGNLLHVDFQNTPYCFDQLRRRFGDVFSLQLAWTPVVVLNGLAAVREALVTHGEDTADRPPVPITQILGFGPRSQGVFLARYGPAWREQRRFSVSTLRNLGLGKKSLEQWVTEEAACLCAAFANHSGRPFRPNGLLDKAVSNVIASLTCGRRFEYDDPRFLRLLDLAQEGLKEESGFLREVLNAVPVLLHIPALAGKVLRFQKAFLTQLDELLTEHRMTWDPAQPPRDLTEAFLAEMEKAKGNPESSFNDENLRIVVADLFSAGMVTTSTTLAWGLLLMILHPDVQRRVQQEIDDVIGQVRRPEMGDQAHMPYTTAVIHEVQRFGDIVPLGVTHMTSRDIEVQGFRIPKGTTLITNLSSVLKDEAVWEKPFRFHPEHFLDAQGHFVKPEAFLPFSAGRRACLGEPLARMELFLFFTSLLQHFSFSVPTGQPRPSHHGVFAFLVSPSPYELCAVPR", "assay": "Cytochrome P450 family 2 subfamily D member 6 (CYP2D6) small molecule antagonists: luciferase biochemical (cell-free) qHTS assay (AID 1645840; active = well fitted curve in the direction sought with a large enough effect in the repeat runs; inconclusive = weak or mixed curves; inactive = no such curve, though single readings can be large; an effect the other way counts as inactive or inconclusive; note: nearly all actives have a fitted effect of over 55% in size; for activity change, negative = inhibition: % is set by controls: 0 for no effect and ±100 for the full control effect)", "summary_of_the_method": "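P450-Glo CYP2D6 system: proluciferin substrate converted by enzyme to luciferin, read by luminescence proportional to activity. Enzyme-substrate mix with compound 10 min at room temperature, then NADPH regeneration 1 h before detection reagent.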"}, "[2]": {"assay": "Primary fluorescence-based thiol-reactive (MSTI) qHTS assay for identification of artifact compounds. (AID 1845221);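 note: thiol-reactive compounds lower the probe fluorescence signal; nearly all actives have a fitted effect of over 65% in size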", "summary_of_the_method": "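First, 4 uM MSTI in 2% DMSO/PBS pH 7.4 was dispensed; next, compounds were added; then plates sat 1 h at room temperature without light. Finally, emission at 598 nm was recorded.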"}, "NIH3T3": {"tested_on": "NIH3T3", "assay": "Cytotoxic Profiling of Annotated Libraries Using Quantitative High-Throughput Screening (AID 1296008); note: nearly all actives have a fitted effect of over 60% in size; for max response: % is set by controls: 0 for no effect and ±100 for the full control effect", "details": "Five cell lines viability, CellTiter-Glo ATP luminescence, 48-72 h; max response: hits give low values", "summary_of_the_method": "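Cytotoxicity was measured as CellTiter-Glo ATP luminescence, read after 10 min at room temperature. Compound treatment of the cells lasted 48 or 72 hr at 37 degrees Celsius in a qHTS format.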"}, "HeLa": {"tested_on": "HeLa", "assay": "Primary qHTS to identify gynecologic anti-cancer compounds using libraries of approved drugs and bioactive compounds (AID 1345084); note: nearly all actives have a fitted effect of over 55% in size; for activity change, negative = cytotoxicity: % is set by controls: 0 for no effect and ±100 for the full control effect", "details": "Gynecologic cancer cell panel viability, ATPlite luminescence, 48 h; activity change, negative = cytotoxicity: at 57.5 µM (top of the series)", "summary_of_the_method": "(§1)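 48 h compound exposure at 37 C, 5% CO2; five-point qHTS. ATPlite luminescence readout of cell ATP.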"}, "OV90": {"tested_on": "OV90", "assay": "Primary qHTS to identify gynecologic anti-cancer compounds using libraries of approved drugs and bioactive compounds (AID 1345084)", "details": "Gynecologic cancer cell panel viability, ATPlite luminescence, 48 h; series mostly up to 57.5 µM", "summary_of_the_method": "as §1"}, "SKOV3": {"tested_on": "SKOV3", "assay": "Primary qHTS to identify gynecologic anti-cancer compounds using libraries of approved drugs and bioactive compounds (AID 1345084)", "details": "Gynecologic cancer cell panel viability, ATPlite luminescence, 48 h; series mostly up to 57.5 µM", "summary_of_the_method": "as §1"}, "Es-2": {"tested_on": "Es-2", "assay": "Primary qHTS to identify gynecologic anti-cancer compounds using libraries of approved drugs and bioactive compounds (AID 1345084)", "details": "Gynecologic cancer cell panel viability, ATPlite luminescence, 48 h; series mostly up to 57.5 µM", "summary_of_the_method": "as §1"}, "Hek293T": {"tested_on": "Hek293T", "assay": "Primary qHTS to identify gynecologic anti-cancer compounds using libraries of approved drugs and bioactive compounds (AID 1345084)", "details": "Gynecologic cancer cell panel viability, ATPlite luminescence, 48 h, control line for the selectivity index; activity change, negative = cytotoxicity: at 57.5 µM (top of the series) unless noted", "summary_of_the_method": "as §1"}, "[3]": {"assay": "Primary qHTS for inhibitors of nuclear receptor binding SET domain protein 2 (NSD2) in an RCH-ACV wild type WT cells (2C) (AID 1645877)", "details": "activity change, negative = cell killing: at 44.9 µM (top of the series) unless noted"}, "CAOV3": {"tested_on": "CAOV3", "assay": "Primary qHTS to identify gynecologic anti-cancer compounds using libraries of approved drugs and bioactive compounds (AID 1345084)", "details": "Gynecologic cancer cell panel viability, ATPlite luminescence, 48 h; activity change, negative = cytotoxicity: at 57.5 µM (top of the series)", "summary_of_the_method": "as §1"}, "Tov-21-G": {"tested_on": "Tov-21-G", "assay": "Primary qHTS to identify gynecologic anti-cancer compounds using libraries of approved drugs and bioactive compounds (AID 1345084)", "details": "Gynecologic cancer cell panel viability, ATPlite luminescence, 48 h; activity change, negative = cytotoxicity: at 57.5 µM (top of the series) unless noted", "summary_of_the_method": "as §1"}, "[4]": {"assay": "Primary qHTS for small molecule stabilizers of the endoplasmic reticulum resident proteome: Secreted ER Calcium Modulated Protein (SERCaMP) assay (AID 1508630)", "details": "SH-SY5Y GLuc-SERCaMP (Gaussia luciferase released on ER calcium loss) secretion, thapsigargin, luminescence; activity change, negative = inhibition: at 38.4 µM (top of the series) unless noted", "summary_of_the_method": "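The SH-SY5Y reporter protocol was run at 3 concentrations up to 38.3 uM (primary) or 11 concentrations (follow-up): 16 h compound, 100 nM thapsigargin for 4 h, then extracellular luciferase luminescence.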"}, "Tov112D": {"tested_on": "Tov112D", "assay": "Primary qHTS to identify gynecologic anti-cancer compounds using libraries of approved drugs and bioactive compounds (AID 1345084)", "details": "Gynecologic cancer cell panel viability, ATPlite luminescence, 48 h; series mostly up to 57.5 µM", "summary_of_the_method": "as §1"}, "[5]": {"tested_on": "Zika virus NS2B-NS3 protease (unlinked complex)", "assay": "Primary screen GU Rhodamine qHTS for Zika virus inhibitors: Unlinked NS2B-NS3 protease assay (AID 1347159)", "summary_of_the_method": "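Unlinked NS2B/NS3, 25 nM; Rhod110 peptide, 1.5 microM; compounds, up to 114 microM. Reaction run 15 min at RT in 10 mM Tris-HCl pH 8.0, 0.01% Tween 20; kinetic fluorescence change fitted with a 4-parameter Hill model.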"}, "[6]": {"assay": "Primary qHTS for inhibitors of nuclear receptor binding SET domain protein 2 (NSD2) in an isogenic RCH-ACV NSD2 p.E1099K mutant (9B) (AID 1645876)"}}, "note": "Inconclusive means that the source gave no clear call. Such entries were picked first, then a sample of the others. For part of these data: No potency is given beside an inconclusive call; the fits are too rough. Activity calls are given as the source filed them. Unless noted, calls come from the whole dose curve; as a rule, active = well fitted curve in the direction sought with a large enough effect; inconclusive = small, poorly fitted or top-dose-only effect, or another doubt; inactive = no such curve, though single readings can be large; an effect the other way counts as inactive or inconclusive. Potency is the fitted concentration of half-maximal effect; tags give direction and shape of the fitted curve. Throughout, for activity change, negative = cell killing: % is set by controls: 0 for no effect and ±100 for the full control effect. Throughout, for activity change, negative = cell killing: nearly all actives have a fitted effect of over 70% in size."}
{"smiles": "COc1cn(-c2ccc(-n3cccn3)cc2F)nc(-c2ccnn2-c2ccccc2)c1=O", "values": [{"measurement": "Potency", "setting": "[1]", "result": "inconclusive [inhibitor, single point]"}, {"measurement": "Potency", "setting": "[2]", "result": "inactive"}, {"measurement": "outcome", "setting": "NIH3T3", "result": "inactive"}, {"measurement": "Potency", "setting": "HeLa", "result": "inactive"}, {"measurement": "Potency", "setting": "OV90", "result": "inactive"}, {"measurement": "Potency", "setting": "SKOV3", "result": "inactive"}]}
{"smiles": "CC/C=C\\[C@H](O)[C@H](O)C1=C(C)C(=O)[C@]2(O1)C(=O)N[C@@](O)(C(=O)c1ccccc1)[C@@H]2O", "values": [{"measurement": "Potency", "setting": "[2]", "result": "inconclusive [inhibitor, partial curve]"}, {"measurement": "outcome", "setting": "NIH3T3", "result": "inactive"}, {"measurement": "Potency", "setting": "Es-2", "result": "inactive"}, {"measurement": "Potency", "setting": "Hek293T", "result": "inactive"}]}
{"smiles": "CN(CC1(C)CCCO1)S(=O)(=O)c1ccc(Cl)c(S(N)(=O)=O)c1", "note": "(centres undefined)", "values": [{"measurement": "Potency", "setting": "[1]", "result": "inactive"}, {"measurement": "Potency", "setting": "NIH3T3", "result": "inconclusive [inhibitor, single point]"}, {"measurement": "Potency", "setting": "Es-2", "result": "inactive"}, {"measurement": "Potency", "setting": "SKOV3", "result": "inactive"}]}
{"smiles": "O=C(O[C@H]1[C@@H]2C=CO[C@@H](O[C@@H]3O[C@H](CO)[C@@H](O)[C@H](O)[C@H]3O)[C@@H]2[C@@]2(CO)O[C@@H]12)c1ccccc1", "values": [{"measurement": "Potency", "setting": "[3]", "result": "inactive"}, {"measurement": "Potency", "setting": "[2]", "result": "inconclusive [inhibitor, partial curve]"}, {"measurement": "max response", "setting": "NIH3T3", "result": "inactive: -6.96%"}, {"measurement": "Potency", "setting": "CAOV3", "result": "inconclusive [rising, full curve, poor fit]"}, {"measurement": "Potency", "setting": "Tov-21-G", "result": "inactive"}]}
{"smiles": "O=C(O)CCCC[C@@H]1SC[C@@H]2NC(=O)N[C@@H]21", "values": [{"measurement": "Potency", "setting": "[4]", "result": "inconclusive [inhibitor, partial curve, poor fit]"}, {"measurement": "max response", "setting": "NIH3T3", "result": "inactive: 1.46%"}, {"measurement": "Potency", "setting": "Es-2", "result": "inactive"}]}
{"smiles": "CCOc1ccc(C(=O)OCCN(CC)CC)cc1", "values": [{"measurement": "max response", "setting": "NIH3T3", "result": "inactive: -1.32%"}, {"measurement": "Potency", "setting": "Es-2", "result": "inactive"}, {"measurement": "Potency", "setting": "OV90", "result": "inactive"}, {"measurement": "Potency", "setting": "Tov112D", "result": "inactive"}]}
{"smiles": "c1ccc(Nc2nc3c(s2)CCCc2[nH]ncc2-3)nc1", "values": [{"measurement": "Potency", "setting": "[5]", "result": "inconclusive [inhibitor, partial curve]"}, {"measurement": "Potency", "setting": "[6]", "result": "inconclusive [inhibitor, single point]"}, {"measurement": "Potency", "setting": "[3]", "result": "inconclusive [inhibitor, single point]"}, {"measurement": "Potency", "setting": "[2]", "result": "active: 1.5 µM"}, {"measurement": "max response", "setting": "NIH3T3", "result": "inactive: 3.95%"}, {"measurement": "Potency", "setting": "HeLa", "result": "inconclusive [cytotoxic, partial curve, poor fit]"}, {"measurement": "Potency", "setting": "SKOV3", "result": "inactive"}]}
{"smiles": "CCCCCOc1ccc(C2SC(=O)NC2=O)cc1OCC", "note": "(centres undefined)", "values": [{"measurement": "Potency", "setting": "[5]", "result": "inconclusive [inhibitor, partial curve]"}, {"measurement": "Potency", "setting": "[1]", "result": "inactive"}, {"measurement": "Potency", "setting": "[6]", "result": "inconclusive [inhibitor, partial curve, poor fit]"}, {"measurement": "outcome", "setting": "NIH3T3", "result": "inactive"}, {"measurement": "Potency", "setting": "HeLa", "result": "inactive"}, {"measurement": "Potency", "setting": "SKOV3", "result": "inconclusive [rising, single point]"}]}
